Results reported in the supplement of paper PMC4967469.
The IC50 comes from the fitted curve, where viability falls to half of the control; a fit beyond the top or the lowest dose is shown as a bound at that dose. AUC is the area under the same curve over the 256-fold range up to the top dose, as a fraction; it is 1 without any effect and falls as sensitivity rises. The top dose, if marked as inferred, comes from the curve model; the source does not state it.

Compound: O=C1NC(=O)/C(=C\c2ccc3nccnc3c2)S1 [AS605240]
Assay: Viability of human cancer cell lines after 72 h of drug (GDSC screen)
Conditions: top dose inferred
Method: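 Human cancer cell lines in 384-well plates, medium with 10% serum, drug for 72 h over a 256-fold dose range (nine 2-fold or five 4-fold steps up to the top dose). Adherent lines were fixed and stained with the nucleic acid dye Syto60, suspension lines read with resazurin; signal relative to control wells, capped at 0 and 100%. One two-parameter sigmoid per drug and line, fitted in a mixed model over all curves with the slope shared within a line.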

| Cell Line | AUC | IC50 |
| --- | --- | --- |
| NCI-H358 (lung adenocarcinoma, adherent, top dose 20 µM) | 0.677 | 4.14 µM |
| NCI-H441 (lung adenocarcinoma, adherent, top dose 20 µM) | 0.874 | > 20 µM |
| NCI-H446 (small cell lung carcinoma, semi-adherent, top dose 20 µM) | 0.983 | > 20 µM |
| NCI-H460 (large cell lung carcinoma, adherent, top dose 20 µM) | 0.99 | > 20 µM |
| NCI-H510A (small cell lung carcinoma, semi-adherent, top dose 20 µM) | 0.959 | > 20 µM |
| NCI-H520 (lung squamous cell carcinoma, adherent, top dose 20 µM) | 0.888 | > 20 µM |
| NCI-H522 (lung adenocarcinoma, adherent, top dose 20 µM) | 0.733 | 6.61 µM |
| NCI-H524 (small cell lung carcinoma, suspension, top dose 20 µM) | 0.97 | > 20 µM |
| NCI-H526 (small cell lung carcinoma, suspension, top dose 20 µM) | 0.966 | > 20 µM |
| NCI-H596 (lung adenocarcinoma, adherent, top dose 20 µM) | 0.646 | 3.6 µM |
| NCI-H630 (large intestine, adherent, top dose 20 µM) | 0.952 | > 20 µM |
| NCI-H647 (non-small cell lung carcinoma, adherent, top dose 20 µM) | 0.848 | 15.9 µM |
| NCI-H650 (lung adenocarcinoma, adherent, top dose 20 µM) | 0.751 | 7.18 µM |
| NCI-H661 (large cell lung carcinoma, adherent, top dose 20 µM) | 0.86 | > 20 µM |
| NCI-H716 (large intestine, suspension, top dose 20 µM) | 0.973 | > 20 µM |
| NCI-H720 (lung carcinoid, suspension, top dose 20 µM) | 0.971 | > 20 µM |
| NCI-H727 (lung carcinoid, adherent, top dose 20 µM) | 0.369 | 0.427 µM |
| NCI-H747 (large intestine, adherent, top dose 20 µM) | 0.555 | 1.83 µM |
| NCI-H748 (small cell lung carcinoma, suspension, top dose 20 µM) | 0.952 | > 20 µM |
| NCI-H810 (large cell lung carcinoma, adherent, top dose 20 µM) | 0.885 | > 20 µM |
| NCI-H838 (lung adenocarcinoma, adherent, top dose 20 µM) | 0.969 | > 20 µM |
| NCI-H841 (small cell lung carcinoma, adherent, top dose 20 µM) | 0.952 | > 20 µM |
| NCI-H847 (small cell lung carcinoma, adherent, top dose 20 µM) | 0.896 | 16.3 µM |
| NCI-H1048 (small cell lung carcinoma, adherent, top dose 20 µM) | 0.818 | 9.88 µM |

| Cell Line | AUC | IC50 |
| --- | --- | --- |
| NCI-H1092 (small cell lung carcinoma, suspension, top dose 20 µM) | 0.951 | > 20 µM |
| NCI-H1155 (large cell lung carcinoma, suspension, top dose 20 µM) | 0.897 | 17 µM |
| NCI-H1299 (large cell lung carcinoma, adherent, top dose 20 µM) | 0.779 | 10.1 µM |
| NCI-H1304 (small cell lung carcinoma, suspension, top dose 20 µM) | 0.456 | 0.941 µM |
| NCI-H1355 (lung adenocarcinoma, adherent, top dose 20 µM) | 0.903 | > 20 µM |
| NCI-H1395 (lung adenocarcinoma, adherent, top dose 20 µM) | 0.969 | > 20 µM |
| NCI-H1417 (small cell lung carcinoma, suspension, top dose 20 µM) | 0.942 | > 20 µM |
| NCI-H1435 (lung adenocarcinoma, semi-adherent, top dose 20 µM) | 0.962 | > 20 µM |
| NCI-H1436 (small cell lung carcinoma, suspension, top dose 20 µM) | 0.893 | > 20 µM |
| NCI-H1437 (lung adenocarcinoma, adherent, top dose 20 µM) | 0.589 | 2.21 µM |
| NCI-H1563 (lung adenocarcinoma, adherent, top dose 20 µM) | 0.788 | 10.7 µM |
| NCI-H1568 (lung adenocarcinoma, adherent, top dose 20 µM) | 0.698 | 5.22 µM |
| NCI-H1573 (lung adenocarcinoma, adherent, top dose 20 µM) | 0.86 | 16 µM |
| NCI-H1581 (large cell lung carcinoma, semi-adherent, top dose 20 µM) | 0.888 | 19.4 µM |
| NCI-H1623 (lung adenocarcinoma, adherent, top dose 20 µM) | 0.928 | > 20 µM |
| NCI-H1648 (lung adenocarcinoma, adherent, top dose 20 µM) | 0.763 | 7.63 µM |
| NCI-H1651 (lung adenocarcinoma, adherent, top dose 20 µM) | 0.978 | > 20 µM |
| NCI-H1666 (lung adenocarcinoma, semi-adherent, top dose 20 µM) | 0.935 | > 20 µM |
| NCI-H1688 (small cell lung carcinoma, adherent, top dose 20 µM) | 0.928 | > 20 µM |
| NCI-H1693 (lung adenocarcinoma, adherent, top dose 20 µM) | 0.922 | > 20 µM |
| NCI-H1694 (small cell lung carcinoma, suspension, top dose 20 µM) | 0.875 | 19.5 µM |
| NCI-H1703 (lung adenocarcinoma, adherent, top dose 20 µM) | 0.885 | > 20 µM |
| NCI-H1734 (lung adenocarcinoma, adherent, top dose 20 µM) | 0.943 | > 20 µM |
| NCI-H1755 (lung adenocarcinoma, adherent, top dose 20 µM) | 0.496 | 1.22 µM |

| Cell Line | AUC | IC50 |
| --- | --- | --- |
| NCI-H1770 (non-small cell lung carcinoma, suspension, top dose 20 µM) | 0.78 | 7.17 µM |
| NCI-H1781 (lung adenocarcinoma, adherent, top dose 20 µM) | 0.638 | 3.01 µM |
| NCI-H1792 (lung adenocarcinoma, adherent, top dose 20 µM) | 0.242 | 0.248 µM |
| NCI-H1793 (lung adenocarcinoma, adherent, top dose 20 µM) | 0.941 | > 20 µM |
| NCI-H1836 (small cell lung carcinoma, suspension, top dose 20 µM) | 0.931 | > 20 µM |
| NCI-H1838 (lung adenocarcinoma, adherent, top dose 20 µM) | 0.924 | > 20 µM |
| NCI-H1869 (lung squamous cell carcinoma, adherent, top dose 20 µM) | 0.789 | 10.1 µM |
| NCI-H1876 (small cell lung carcinoma, adherent, top dose 20 µM) | 0.874 | 19.8 µM |
| NCI-H1915 (large cell lung carcinoma, adherent, top dose 20 µM) | 0.791 | 9.19 µM |
| NCI-H1944 (lung adenocarcinoma, adherent, top dose 20 µM) | 0.626 | 2.84 µM |
| NCI-H1975 (lung adenocarcinoma, adherent, top dose 20 µM) | 0.928 | > 20 µM |
| NCI-H1993 (lung adenocarcinoma, adherent, top dose 20 µM) | 0.774 | 10.4 µM |
| NCI-H2009 (lung adenocarcinoma, adherent, top dose 20 µM) | 0.97 | > 20 µM |
| NCI-H2023 (lung adenocarcinoma, adherent, top dose 20 µM) | 0.953 | > 20 µM |
| NCI-H2029 (small cell lung carcinoma, adherent, top dose 20 µM) | 0.95 | > 20 µM |
| NCI-H2030 (lung adenocarcinoma, adherent, top dose 20 µM) | 0.819 | 13.4 µM |
| NCI-H2052 (mesothelioma, adherent, top dose 20 µM) | 0.981 | > 20 µM |
| NCI-H2081 (small cell lung carcinoma, suspension, top dose 20 µM) | 0.927 | > 20 µM |
| NCI-H2085 (lung adenocarcinoma, adherent, top dose 20 µM) | 0.696 | 4.69 µM |
| NCI-H2087 (lung adenocarcinoma, semi-adherent, top dose 20 µM) | 0.982 | > 20 µM |
| NCI-H2110 (non-small cell lung carcinoma, adherent, top dose 20 µM) | 0.942 | > 20 µM |
| NCI-H2122 (lung adenocarcinoma, adherent, top dose 20 µM) | 0.972 | > 20 µM |
| NCI-H2135 (non-small cell lung carcinoma, adherent, top dose 20 µM) | 0.952 | > 20 µM |
